Among the test systems are MZ2-MEL; MeWo; RPMI7951; RVH-421; SkMel28; SkMel2; SkMel30; SkMel5; UACC257; UACC62; WM115; WM1716; WM1745; WM3526; WM3619; WM451Lu.
Common to all, as to experiment: cell count relative to DMSO control; melanoma cells; higher = more viable cells
Common to all, as to conditions: library dose: low library concentration; 72 h

Molecules are shown by their SMILES. This is one part of the list. Single values are uncertain, as repeats are few or missing.
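Note: cell number obtained by counting DAPI-stained nuclei in high-throughput microscope images with image analysis software, screen run in 1,536-well plates.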

Turning to `CC1(C)NC(=O)N(c2ccc([N+](=O)[O-])c(C(F)(F)F)c2)C1=O` [nilutamide] + Cc1cc(N2CCOCC2)cc2[nH]c(-c3c(NC[C@@H](O)c4cccc(Cl)c4)cc[nH]c3=O)nc12 [BMS536924] (first compound 1 µM, partner dose 0.2 µM), the cell count in the test on MZ2-MEL was 104%; in the test on MeWo it was 87.6%; in the test on RPMI7951, 106%; with RVH-421 it was 106%; in the test on SkMel28 it was 87.2%; with SkMel2, 97.8%. Also, the cell count in the test on SkMel30 turned out to be 104%; in the test on SkMel5, 93%; with UACC257, 90.2%; in the test on UACC62, 87.5%; in the test with WM115, 104%; in the test on WM1716, 87.6%. Also, the cell count came to 70.3% in the test on WM1745, 90.3% with WM3526, 107% with WM3619 and 96.2% in the test on WM451Lu.

As for `O=c1[nH]nc(Sc2ncc([N+](=O)[O-])s2)n1-c1ccc2c(c1)OCCO2` + O=S(=O)(c1ccccc1)N(CC(F)(F)F)c1ccc(C(O)(C(F)(F)F)C(F)(F)F)cc1 [T0901317] (first compound 0.2 µM, partner dose 1.4 µM), the cell count in the test on MZ2-MEL turned out to be 99.7%; in the test with MeWo it was 97.2%; in the test on RPMI7951, 100%; in the test on RVH-421, 85.9%; in the test on SkMel28 it was 76.2%; in the test on SkMel2 it was 96.9%. For the same molecule, the cell count with SkMel30 worked out at 104%; in the test with SkMel5, 96%; in the test with UACC257, 130%; in the test on UACC62, 103%; in the test on WM115, 88.2%; in the test with WM1716 it was 85.9%. Further, the cell count with WM1745 worked out at 85.7%; in the test on WM3526, 80.3%; with WM3619 it was 101%; with WM451Lu, 115%.

For the molecule `O=c1[nH]nc(Sc2ncc([N+](=O)[O-])s2)n1-c1ccc2c(c1)OCCO2` + O=C(Nc1ccccc1)c1cc([N+](=O)[O-])ccc1Cl [GW9662] (first compound 0.2 µM, partner dose 2 µM), the cell count with MZ2-MEL stood at 103%; with MeWo, 96.2%; with RPMI7951, 99.8%; in the test on RVH-421 it was 108%; with SkMel28, 91%; in the test on SkMel2, 108%. The cell count worked out at 104% in the test with SkMel30; 96.1% with SkMel5; 78.3% with UACC257; 75.7% in the test with UACC62; 84.9% in the test with WM115; 88% in the test with WM1716. The cell count in the test on WM1745 came to 96.9%; in the test with WM3526 it was 88.3%; in the test with WM3619, 95.4%; in the test with WM451Lu, 99.3%.

As for `COc1cc(Nc2ncc(F)c(Nc3ccc4c(n3)NC(=O)C(C)(C)O4)n2)cc(OC)c1OC` [Tamatinib] + Cc1cc(N2CCOCC2)cc2[nH]c(-c3c(NC[C@@H](O)c4cccc(Cl)c4)cc[nH]c3=O)nc12 [BMS536924] (first compound 0.4 µM, partner dose 0.2 µM), the cell count worked out at 85.7% in the test on MZ2-MEL; 78.9% in the test on MeWo; 95.6% in the test with RPMI7951; 79.9% in the test on RVH-421; 69.3% with SkMel28; 76.2% in the test on SkMel2. The cell count in the test on SkMel30 was 86.3%; in the test with SkMel5, 81.6%; in the test with UACC257, 51.1%; with UACC62, 88%; with WM115, 77.4%; with WM1716, 99%. For the same molecule, the cell count in the test on WM1745 was 36.4%; in the test on WM3526, 78.2%; in the test on WM3619, 75.9%; in the test on WM451Lu, 65.6%.

As to `CC1(C)NC(=O)N(c2ccc([N+](=O)[O-])c(C(F)(F)F)c2)C1=O` [nilutamide] + C[C@@H]1CCN(C(=O)CC#N)C[C@@H]1N(C)c1ncnc2[nH]ccc12 [CP690550] (first compound 1 µM, partner dose 1 µM), the cell count with MZ2-MEL was 97.9%; in the test with MeWo, 93.9%; with RPMI7951 it was 85.8%; in the test with RVH-421, 106%; in the test with SkMel28 it was 91.3%; in the test on SkMel2, 105%. Also, the cell count in the test with SkMel30 was 96.6%; in the test on SkMel5 it was 95.9%; in the test with UACC257, 94.6%; with UACC62, 85.7%; in the test on WM115 it was 107%; in the test on WM1716 it was 101%. Besides, the cell count came out at 93.4% in the test with WM1745, 86.6% in the test on WM3526, 112% in the test on WM3619 and 49.2% in the test with WM451Lu.

Regarding `O=c1[nH]nc(Sc2ncc([N+](=O)[O-])s2)n1-c1ccc2c(c1)OCCO2` + NC(=O)Nc1cc(-c2cccc(F)c2)sc1C(=O)N[C@H]1CCCNC1 [AZD7762] (first compound 0.2 µM, partner dose 0.02 µM), the cell count is 118% in the test on MZ2-MEL; 97.7% in the test on MeWo; 110% in the test on RPMI7951; 111% in the test with RVH-421; 105% in the test on SkMel28; 102% in the test on SkMel2. Further, the cell count amounted to 104% in the test with SkMel30; 90.2% with SkMel5; 91.4% in the test with UACC257; 97.7% with UACC62; 101% in the test on WM115; 96.3% in the test with WM1716. In addition, the cell count came out at 82.8% in the test with WM1745, 86.9% in the test on WM3526, 64.7% with WM3619 and 91.2% in the test with WM451Lu.

As to `CC1(C)NC(=O)N(c2ccc([N+](=O)[O-])c(C(F)(F)F)c2)C1=O` [nilutamide] + CC(C)(C)c1cnc(CSc2cnc(NC(=O)C3CCNCC3)s2)o1 [SNS-032] (first compound 1 µM, partner dose 0.01 µM), the cell count in the test with MZ2-MEL is 107%; in the test with MeWo it was 101%; in the test on RPMI7951, 91.1%; in the test on RVH-421 it was 118%; with SkMel28, 82.3%; in the test on SkMel2, 93.6%. The cell count in the test with SkMel30 stood at 119%; in the test on SkMel5, 98.6%; in the test on UACC257, 115%; in the test on UACC62, 76%; with WM115, 98.7%; in the test on WM1716, 96.7%. For the same molecule, the cell count is 84.7% in the test on WM1745, 102% in the test on WM3526, 107% in the test on WM3619 and 86.1% in the test with WM451Lu.

Take `CC1(C)NC(=O)N(c2ccc([N+](=O)[O-])c(C(F)(F)F)c2)C1=O` [nilutamide] + C=CCn1c(=O)c2cnc(Nc3ccc(N4CCN(C)CC4)cc3)nc2n1-c1cccc(C(C)(C)O)n1 [MK1775] (first compound 1 µM, partner dose 0.02 µM): the cell count in the test with MZ2-MEL worked out at 97.8%; with MeWo it was 101%; in the test with RPMI7951, 91%; with RVH-421, 82.3%; in the test on SkMel28 it was 94.5%; in the test on SkMel2, 87.7%. Further, the cell count in the test with SkMel30 was 103%; with SkMel5, 100%; with UACC257, 74.7%; with UACC62 it was 82.5%; in the test with WM115 it was 93.3%; in the test on WM1716, 79.6%. For the same molecule, the cell count is 83.8% in the test with WM1745, 71.7% in the test on WM3526, 91.4% in the test on WM3619 and 105% in the test on WM451Lu.

For the molecule `C[C@@H]1CCN(C(=O)CC#N)C[C@@H]1N(C)c1ncnc2[nH]ccc12` + O=C(Nc1cccc(Cl)c1)Nc1ncc(CCNc2ncnc3ccsc23)s1 [SNS314] (first compound 1 µM, partner dose 0.0008 µM), the cell count in the test with MZ2-MEL worked out at 102%; in the test on MeWo, 101%; with RPMI7951, 112%; in the test on RVH-421 it was 97.9%; in the test on SkMel28, 100%; with SkMel2, 108%. In addition, the cell count worked out at 117% in the test on SkMel30; 96.3% in the test with SkMel5; 103% in the test with UACC257; 80.9% with UACC62; 85.5% in the test on WM115; 90.6% with WM1716. Also, the cell count stood at 83.8% in the test with WM1745, 93.8% with WM3526, 106% in the test with WM3619 and 91.4% in the test with WM451Lu.
